According to the RNAGym collection of RNA variant scans (doi:10.1073/pnas.2313332121):
This sample is rich in variants without activity.

B1: TPR 5TU (parent)
chain: GGAUCUUCUCGAUCUAACAAAAAAGACAAAUCUGCCACAAAGCUUGAGAGCAUCUUCGGAUGCAGAGGCGGCAGCCUUCGGUGGCGCGAUAGCGCCAACGUUCUCAACUAUGACACGCAAAACGCGUGCUCCGUUGAAUGGAGUUUAUCAUG

Variants of: B1
Test: polymerase ribozyme fitness, log enrichment relative to wild type (log ratio); higher = more active; in vitro selection for triplet polymerase activity
Summary of the method: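 For each subunit of a heterodimeric triplet polymerase ribozyme, a mutant library was built by PCR and transcribed, then taken through a single in vitro selection round in triplicate. Selection involved annealing to a biotinylated primer, the partner subunit and triplets, incubation frozen at −7 °C, gel excision of extended constructs, capture on streptavidin beads and RT-PCR. Genotypes were retained after Illumina sequencing of inputs and outputs only with ≥10 input reads and ≥1 read in each output. Fitness is defined as the logarithm of a genotype's enrichment relative to wild-type enrichment, using inverse-variance-weighted averages across replicates, with the logarithm taken to base 2.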

Point of comparison: GGAUCUUCUCGAUCUAACAAAAAAGACAAAUCUGCCACAAAGCUUGAGAGCCUCUCCGGAUGCAGAGGCGGCAGCCUUCGGUGGCGCGAUAGCGCCAACGUUGUCAACUAUGACACGCAAAACGCGUGCUCCGUUGAAUGGACUUUAUCAUG, “polymerase ribozyme fitness (log ratio)” value -4.12. Against it:
- GGAUCUUCUCGAUCUAACAAAAAAGACAAAUCUGCCACAAAGCUUGAGAGCGUCUUCGGAUGCAGAGGCGGCAGCCUUCGGUGGCGCGUUAACGCCAACGUUCUCAACUAUGACUCGCAAAACGCGUGCUCCGUUGAAUGGAGUUUCUCAUG — lower, ≤ -4.2
- GGAUCUUCUCGAUCUAACAAAAAAGACAAAUCUGCCACAAAGCUUGAGAGCCUCUUCGGAUGCAGAGGCGGCAGCCUACGGUGGCGCGAUCGCGCCAACGUUCUCAAUUAUGACACGCAAAACGCGUGCUCCGUUGAAUGGAAUUUAUCAUG — lower, ≤ -4.2
- GGAUCUUCUCGAUCUAACAAAAAAGACAAAUCUGCCACAAAGCUUGAGAGCGUCUUCGGAUGCAGAGGCGGCAGCCUUCGGUGGCGCGAUAGCGCCAACGUUCUCGACUAUGACACGCAAAACGCGUGCUCCGUUGAAUGGAAUUUAUCAUG — higher, -0.542
- GGAUCUUCUCGAUCUAACAAAAAAGACAAAUCUGCCACAAAGCUUGAGAGCCUCUUCGGAUGCAGAGGCGGCAGCCCUCGAUGGCGCCAUAGUGCCAACGUUCUCAACUAUGACACGCAAAACGCGUGCUUCGUUGAAUGGAGUUUAUCAUG — lower, ≤ -4.2
- GGAUCUUCUCGAUCUAACAAAAAAGACAAAUCUGCCACAAAGCUUGAGAGCGUCUUCGGAUGCAGAGGCGGCUGCCUUCGGUGGCGCGAUAGCACCAACGUGGUCAUCUAUGACACGCAAAACGCGUGCUCCGUUGAAUGGAGUUUAUCAUG — lower, ≤ -4.2
- GGAUCUUCUCGAUCUAACAAAAAAGACAAAUCUGCCACAAAGCUUGAGAGCGUCUUCGGAUGUAGAGGCGGCAGCAUUCGGUGGCGCGAUAGCCCCAACGUUCUCAACUAUGACACGCAAAACGCGUGCUCCGUUGAAUGGAGUUUAUCACG — lower, ≤ -4.2
- GGAUCUUCUCGAUCUAACAAAAAAGACAAAUCUGCCACAAAGCUUGAGAGCGUAUUCGGAUGCAGAGGCGGCAGCCUUCGGUGGCGCGAUUGCACCAACGUUCUCAACUAUGACACGCAAAACGCGUGCUCCGUUGAAUGGAGUUUAUCAUG — lower, ≤ -4.2
- GGAUCUUCUCGAUCUAACAAAAAAGACAAAUCUGCCACAAAGCUUGAGAGCCUCUUCGGAUGCAGAGGCGGCAGCCUUCGGUGGCGCGAGAGCAACAACGUUCUUAACUAUGACACGCAAAACGCGUGCGCCGUUGAAUGGAGUUUAUCAUG — lower, ≤ -4.2
- GGAUCUUCUCGAUCUAACAAAAAAGACAAAUCUGCCACAAAGCUUGAGAGCGUCUUCGGAUGCAGAGGCGGCAGCCUUCGGUGGCGCGAUAGCGCCAACGUUCUCAACUAUGACACGCAAAACGCGUGCUCCGUUGAAUGGAGUUUAUCCUG — higher, -3.43
- GGAUCUUCUCGAUCUAACAAAAAAGACAAAUCUGCCACAAAGCUUGAGAGCGUAUUCGGAUGCAGAGGCGGCAGCCUUCGGUGGCGCGAUAGCGCCAACGUUCUCAACUAUGACACGCAAAACGCGUGCUCCGUUGAAUGGAGUUUAUCAUG — higher, -0.998
- GGAUCUUCUCGAUCUAACAAAAAAGACAAAUCUGCCACAAAGCUUGAGAGCGUCUUCGGAUGCAGAGGCGGCAGCCUUCGGUGGCGCGAUAGCGCCAACGUUCUCAACUAUGACACGCAAAACGCGUGCUCCGUUGAAUGGUGUUUAUCAUG — higher, -0.597
- GGAUCUUCUCGAUCUAACAAAAAAGACAAAUCUGCCACAAAGCUUGAGAGCCUCUUCGGAUGCAGAGGCGGCAGCCUACGGUGUCGCGAUAGCGCCAACGUUCUCAACUAUGACACGCAAAACGCGUGCUCCGUUGAAUGCAGUUUAUCAUG — lower, ≤ -4.2
- GGAUCUUCUCGAUCUAACAAAAAAGACAAAUCUGCCACAAAGCUUGAGAGCGUCUUCGGAUGCAGAGGCGGCGGCCUUCGGUGGCGCGAUAGCGCCAAUGUUCUCAACUAUGACACACAAAACGCGUGCUCCGUUGAAUGGAGUUUAUCAUG — higher, -1.7
- GGAUCUUCUCGAUCUAACAAAAAAGACAAAUCUGCCACAAAGCUUGAGAGCGUCUUGGGAUGCAGAGGCGGCUGCCUUCGGUGACGCGAUAGCGCCAACGUUCUCAACUAUGACACGCAAAACGCGUGCUCCGUUGAAUGGAGUUUAUCAUG — higher, -3.44
- GGAUCUUCUCGAUCUAACAAAAAAGACAAAUCUGCCACAAAGCUUGAGAGCGUCUUCGGAUGCAGAGGCGGCUGCCUUCGGUGGCGCGAUAGCGCUAACGUUCUCAACUAUGACACGCAAAACGCGUGCUCCGUAGAAUGGAGUUUAUCAUG — lower, ≤ -4.2
- GGAUCUUCUCGAUCUAACAAAAAAGACAAAUCUGCCACAAAGCUUGAGAGCGUCUUGGGAUGCAGAGGCGGCAGCCUUCGGUGGCGUGAUAGCGCCAACGUUCUCAACUAUGACACGCAAAACGCGUGCUCCGUUGAAUGGAGUUUAUCAUG — higher, -1.27
- GGAUCUUCUCGAUCUAACAAAAAAGACAAAUCUGCCACAAAGCUUGAGAGCGUCUUCGGAUGCAGAGGCGGUAGCCAUCGGUGGCGCGAUAGCGCCAACGUUCUCAAGUAUGACACGCAAAACGCGUGCUCCGUUGAAUGGAGUUUAUCAUG — lower, ≤ -4.2
- GGAUCUUCUCGAUCUAACAAAAAAGACAAAUCUGCCACAAAGCUUGAGAGCGUCUUCGGAUGCAGAGGGGGCAGCCUUCGGUGGGGCGAUAGCGCCUACGUUCUCAACUAUGACACGCAAAACGCAUGCUCCGUUGAAUGUAGUUUAUCAUG — lower, ≤ -4.2
